PubChem BioAssay AID1347071 (National Center for Advancing Translational Sciences (NCATS), 2019)
Out of some 410,000 compounds screened, about 260 (0.063%) were called active. Inconclusive results, whose numbers are uncertain, are shown with a selection of clear calls. Calls come from the whole dose curve; as a rule, active = well fitted activation curve with a large enough effect; inconclusive = small, poorly fitted or top-dose-only effect; inactive = no such curve, though single readings can be large or run the other way. No potency is given beside an inconclusive call; the fits are too rough.

assay: qHTS for compounds that reverse cellular toxicity of Amyloid beta (A-beta) peptide in yeast: Primary Screen; conditions: yeast expressing A-beta42, growth rescue, OD600, 48 h; growth rescue: at 46.1 µM (top of the series), 0% DMSO, 100% iron-clioquinol control; note: nearly all actives have a fitted effect of over 55% in size
Procedure, shortened: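 Yeast A-beta toxicity model in growth medium with pinned compounds, 48 h at 30 C; growth read as absorbance at 600 nm. Normalized to FeCl3/clioquinol equimolar mix (positive) and DMSO (negative).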
Potency is the fitted concentration of half-maximal effect; tags give direction and shape of the fitted curve.

| SMILES | Potency |
| --- | --- |
| Clc1ccccc1Cn1nnc2c(Nc3ccccc3)ncnc21 | inconclusive [activator, partial curve, poor fit] |
| CC(C)Cn1c(-c2csc(C(C)C)c2)n[nH]c1=S | inconclusive [activator, partial curve, poor fit] |
| CCOC(=O)C(C)Sc1nc(-c2ccccn2)ncc1OC (stereo not drawn) | inconclusive [activator, single point] |
| Cc1nn(CC(=O)NCCCN2CC(C)CC(C)C2)c(=O)c2cccn12 (stereo not drawn) | inactive |
| O=C(CSc1nnc(NC(=O)C2CCC2)s1)Nc1ccccc1F | inactive |
| CCN(CC)c1ccc(/C=N/NC(=O)c2nnn(-c3nonc3N)c2C(C)C)c(O)c1 | active: 14.1 µM |
| C[C@@]12C(=O)Nc3cc(F)c(F)cc3C(=O)N1[C@H]1c3cc(Cl)ccc3OC[C@@H]1[C@@H]2c1ccccc1 | inconclusive [activator, partial curve, poor fit] |
| N#CCCN1CCCc2cc(N=Nc3ccc(C(F)(F)F)cc3)ccc21 | inconclusive [activator, single point] |
| CC(C)(C)c1ccc(C(=O)NC(=S)N2CCCCCC2)cc1 | inconclusive [activator, partial curve, poor fit] |
| Cc1nn(C(C)(C)C)c(OC(=O)C2CCCC2)c1S(=O)(=O)c1ccccc1 | inconclusive [activator, partial curve, poor fit] |
| COCCNC(=O)c1cc(Sc2ccc(F)cc2F)nc2ccccc12 | inconclusive [activator, partial curve, poor fit] |
| Cc1ccc(NC(=S)NNc2ncc(C(F)(F)F)cc2Cl)c(C)c1 | inconclusive [activator, single point] |
| O=C1CSC(=S)N1c1cccc(O)c1 | inactive |
| Cc1oc(-c2ccccc2)nc1CNC(=O)Nc1ccccc1 | inactive |
| O=C(/C=C/c1cccc([N+](=O)[O-])c1)NCCSCc1cccc(Cl)c1 | inactive |
| CCOc1ccccc1NC(=O)C(C)Sc1nc2c(c(=O)[nH]1)CCCC2 (stereo not drawn) | inactive |
| O=C(O)C1CCCN1C(=O)Nc1ccc(F)cc1 (stereo not drawn) | inactive |
| CN=C(Nc1cccc(Cl)c1)SC1CC(=O)N(c2ccc(OC)cc2)C1=O (stereo not drawn) | active: 8.91 µM |
| CC(C)N(C(=O)Cn1cc(S(=O)(=O)Cc2ccc(C(F)(F)F)cc2)c2ccccc21)C(C)C | inactive |
| S=c1nc2ccccc2c2nc(-c3ccccc3)[nH]n12 | inconclusive [activator, full curve, poor fit] |
| C/C(=N\NC(=S)NC1CCCCC1)c1ccc(C#N)cc1 | inconclusive [activator, partial curve] |
| Cc1ccc(CNC(=O)CCC(=O)N2CC(C)Sc3ccccc32)cc1 (stereo not drawn) | inconclusive [activator, single point] |
| CC(C)Oc1ccc(F)cc1-c1cc(C(=O)NCc2cccs2)[nH]n1 | inactive |

| SMILES | Potency |
| --- | --- |
| CCc1cc2c(-c3ccccc3)cc(=O)oc2cc1OC(C)C(=O)O (stereo not drawn) | inactive |
| Cc1cc(C)c(/C=C/c2onc(C)c2S(=O)(=O)N2CCC(C(=O)N3CCN(c4ccccc4)CC3)CC2)c(C)c1 | inactive |
| COC(=O)c1c(NC(=O)CN(c2ccccc2)S(C)(=O)=O)sc2c1CCCC2 | inconclusive [activator, single point] |
| CCOc1ccc(N2CC(NC(=O)c3ccc(S(=O)(=O)N4CCCC4)cc3)CC2=O)cc1 (stereo not drawn) | inactive |
| O=C1CNC(=S)N1CCc1ccc(Cl)cc1 | inconclusive [activator, partial curve, poor fit] |
| CC(=O)c1ccc(NC(=O)Cn2cnc3nc4c(cc3c2=O)CC(C)CC4)cc1 (stereo not drawn) | inactive |
| OC(c1ccc(Cl)cc1)c1nnc(-c2ccccc2)o1 (stereo not drawn) | inconclusive [activator, partial curve, poor fit] |
| Cn1cnc([N+](=O)[O-])c1Sc1nc(N)nc2c1ncn2C1CC(O)C(CO)O1 (stereo not drawn) | inactive |
| CCC(NC(=O)c1cc(COc2cncc(Cl)c2)on1)c1ccc(C)cc1 (stereo not drawn) | inconclusive [activator, single point] |
| COc1ccc(-c2nc(N)sc2C2(O)C(=O)Nc3c(Br)cc(F)cc32)cc1OC (stereo not drawn) | inconclusive [activator, partial curve, poor fit] |
| O=C(COC(=O)CC1CCCC1)Nc1ccc(OC(F)F)cc1 | inconclusive [activator, partial curve, poor fit] |
| Cc1ccc(-c2nc(NCC3CCCO3)sc2C)cc1 (stereo not drawn) | inconclusive [activator, partial curve, poor fit] |
| Cc1ccccc1OCC(=O)NNC(=O)C1CCN(c2ncnc3sc(C)c(C)c23)CC1 | inactive |
| O=C(O)C(Cc1ccc(Cl)cc1)Sc1nc2ccccc2[nH]1 (stereo not drawn) | inconclusive [activator, single point] |
| CCc1ccc(NC(=O)CO/N=C(\C)c2cc3ccccc3o2)cc1 | inconclusive [activator, partial curve] |
| CC1=Nn2c(nnc2-c2ccc(F)cc2)SC1 | inconclusive [activator, partial curve, poor fit] |
| O=C(NNC(=S)NC1CCCCC1)c1ccccc1Cl | inconclusive [activator, partial curve, poor fit] |
| CCC1C(=O)C(CC)C(c2ccccc2)NC1c1ccccc1 (stereo not drawn) | inconclusive [activator, partial curve] |
| CNC(=S)N/N=C/c1c(C)cccc1Cl | inconclusive [activator, single point] |
| O=C1CCCN1CCCNS(=O)(=O)c1ccccc1 | inactive |
| COc1ccc(NC(=O)CS(=O)c2ccc(F)cc2)cc1 (stereo not drawn) | inactive |
| Cc1cc2nc(-c3ccc(OCc4ccccc4Cl)cc3)cc(C(F)(F)F)n2n1 | inactive |
| CCc1noc(C)c1C(=O)Nc1ccc(C(F)(F)F)cc1 | inconclusive [activator, partial curve, poor fit] |

| SMILES | Potency |
| --- | --- |
| Clc1ccccc1-c1nnc(-c2ccccc2CNc2ccc(Br)cc2)o1 | inconclusive [activator, single point] |
| COc1ccc(C(C(=O)NC(C)(C)C)n2c(=O)c(-c3cc4ccccc4[nH]3)nc3ccccc32)cc1 (stereo not drawn) | inconclusive [activator, single point] |
| COc1ccc(Cl)cc1NC(=O)CN(C)C(=O)c1ccc(COc2ccccc2)cc1 | inconclusive [activator, partial curve, poor fit] |
| CC(C)c1ccc(C2CC(c3ccc(Br)cc3)=NN2C(N)=S)cc1 (stereo not drawn) | active: 10 µM |
| Cc1nc(-c2ccccn2)nc(N(C)c2ccccc2)c1Cl | inconclusive [activator, single point] |
| CC(C)(C)NC(=S)N/N=C/c1c(Cl)cccc1Cl | inconclusive [activator, partial curve] |
| Cc1cnc(NC(=O)CC2CCCC2)s1 | inconclusive [activator, single point] |
| CC(C)c1nc2sc3c(=O)[nH]c(=S)[nH]c3c2c2c1CCCC2 | inconclusive [activator, partial curve, poor fit] |
| COc1cc(C2NCC(c3ccc(Cl)cc3Cl)c3c2[nH]c2ccccc32)cc(OC)c1OC (stereo not drawn) | inconclusive [activator, full curve] |
| CC(C)NC(=O)/C(C#N)=C/c1cccc(NC(=O)c2ccccc2Cl)c1 | inconclusive [activator, partial curve, poor fit] |
| Cc1ccc([C@H]2C[C@@H](n3cc(-c4ccc(F)cc4)nn3)[C@H](O)CN2CC2CCCCC2)cc1 | inconclusive [activator, partial curve, poor fit] |
| O=C(CSc1nnc(CCc2ccccc2)n1-c1ccc(Cl)cc1)NCc1ccccc1 | inconclusive [activator, full curve] |
| CCCCCN(C(=O)CCC(=O)OC(C)C(=O)NCc1ccccc1)c1c(N)n(CCCC)c(=O)[nH]c1=O (stereo not drawn) | inactive |
| Cc1cccc(C(=O)NC(=S)N2CCc3ccccc3C2)c1 | inconclusive [activator, single point] |
| Cc1ccccc1Nc1nc(N)nc(CSc2ccccc2)n1 | inconclusive [activator, single point] |
| COc1ccc(C(OC(=O)c2c(C)noc2C)C(=O)NC2CCCC2)cc1 (stereo not drawn) | inconclusive [activator, full curve] |
| COc1ccc(NC(=S)N2CCC(C(=O)c3ccc(F)cc3)CC2)c(OC)c1 | inconclusive [activator, single point] |
| Cc1cc(C)cc(NS(=O)(=O)c2ccc3[nH]cc(C(=O)N4CCc5ccccc54)c(=O)c3c2)c1 | inconclusive [activator, single point] |
| COc1cc(OC)c(NC(=O)c2cc(C)nc3c2c(C)nn3-c2ccc(C)cc2)cc1Cl | inactive |
| O=C(CN1CCOCC1)Nc1ncc(Cc2cccc3ccccc23)s1 | inconclusive [activator, partial curve, poor fit] |
| CCCCn1c(-c2csc(CCC)c2)n[nH]c1=S | inconclusive [activator, single point] |
| COc1ccc(NC(=S)NC23CC4CC(CC(C4)C2)C3)cc1OC | inconclusive [activator, partial curve, poor fit] |
